Where a name gives a salt, the structure may show the parent alone. Over roughly 2,000 compounds, “fractional viability relative to vehicle” has its median near 0.91; the lowest 2% begin near 0.045. This is one part of the list.
Tested on: TYKNU
Assay: fractional viability relative to vehicle; TYKNU is a high-grade serous ovarian cancer line; higher = less growth inhibition
Settings: 72 h
Summary of the method: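 TYKNU control cells or lentiCRISPRv2 knockout derivatives were seeded at 500 cells per well into drug-stamped 384-well plates holding a ~2100-compound library at 2 or 10 μM, in duplicate. Cells were grown at 37 °C in 5% CO2 in RPMI 1640 with 10% FBS, and drug treatment lasted 72 h. Viability was read by Cell Titer Glo luminescence. Duplicate treatment wells were averaged and normalised to duplicate control wells from the same plate position.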

[1] = 2uM, genotype: DNM1L knockout (sgDNM1L #1)
[2] = 2uM, genotype: sgCTRLA1 (non-targeting control)
[3] = 10uM, genotype: DNM1L knockout (sgDNM1L #1)
[4] = 10uM, genotype: sgCTRLA1 (non-targeting control)

SMILES	fractional viability [1]	fractional viability [2]	fractional viability [3]	fractional viability [4]
COc1ccc(-c2ccc3ncc4c(c3c2)n(-c2ccc(N3CCNCC3)c(C(F)(F)F)c2)c(=O)n4C)cn1	0.0297	0.0315	0.0158	0.0115
CC(=O)O[C@]1(C(C)=O)CC[C@H]2[C@@H]3C=C(Cl)C4=CC(=O)[C@@H]5C[C@@H]5[C@]4(C)[C@H]3CC[C@@]21C [Cyproterone Acetate]	0.763	0.998	0.766	1.01
CC(C)c1cc(-c2n[nH]c(=O)n2-c2ccc3c(ccn3C)c2)c(O)cc1O [Ganetespib (STA-9090)]	0.299	0.204	0.248	0.206
C=CC(=O)Nc1cccc(Nc2nc(Nc3ccc(Oc4ccnc(C(=O)NC)c4)cc3)ncc2F)c1	0.823	1.01	0.241	0.311
CCCSc1nc(N[C@@H]2C[C@H]2c2ccc(F)c(F)c2)c2nnn([C@@H]3C[C@H](OCCO)[C@@H](O)[C@H]3O)c2n1 [Ticagrelor]	0.944	1.12	0.492	0.903
Cn1cc(-c2cnn3c(N)c(Br)c([C@@H]4CCCNC4)nc23)cn1	0.366	0.375	0.393	0.42
C=C1C[C@@]2(O)O[C@@]3(C[C@H]2C(C)C)[C@@H](C)CC[C@@H]13 [Curcumol]	1.04	1.03	0.901	1.09
O=C(O)COCCN1CCN(C(c2ccccc2)c2ccc(Cl)cc2)CC1 (centres undefined) [Cetirizine DiHCl]	1.1	1.2	0.89	1.3
C=CC(=O)Nc1cc(Nc2nccc(-c3cn(C)c4ccccc34)n2)c(OC)cc1N(C)CCN(C)C	0.614	0.895	0.0431	0.0512
C#Cc1cccc(Nc2ncnc3cc4c(cc23)OCCOCCOCCO4)c1 [Icotinib]	1.12	1.13	0.941	1.16
Cc1ccc(NCCCc2ccccc2)c(N)c1	0.983	0.888	1.03	0.879
C=CC(=O)Nc1cc(Nc2nccc(-c3c[nH]c4ccccc34)n2)c(OC)cc1N(C)CCN(C)C	0.324	0.409	0.0466	0.0525
CC1(C)[C@H](C(=O)O)N2C(=O)C[C@H]2S1(=O)=O [Sulbactam]	0.875	0.99	0.898	1.06
CC1(C)[C@H](C(=O)O)N2C(=O)C[C@H]2S1(=O)=O [Sulbactam sodium]	1.01	1.16	0.873	1.23
Cc1ncc(CO)c(CO)c1O [Pyridoxine HCl]	1.09	1.12	0.753	1.09
O=C(O)c1ccc(-c2c[nH]c3ncc(-c4ccccc4)cc23)cc1C1CCCC1	0.881	0.794	0.524	0.567
